From PubChem BioAssay AID485294 (National Center for Advancing Translational Sciences (NCATS), 2010)
The campaign covered roughly 370,000 compounds. About 150 (0.041%) were called active. Inconclusive means that the source gave no clear call. Such entries were picked first, then a sample of the others. Calls follow the shape of the dose curve; as a rule, active = well fitted inhibition curve with a large enough effect; inconclusive = small, poorly fitted or top-dose-only effect; inactive = flat fitted curve, though single readings scatter. No potency is given beside an inconclusive call; the fits are too rough.

target: Beta-lactamase (Escherichia coli (strain K12)) (UniProt P00811); assay: qHTS Inhibitors of AmpC Beta-Lactamase (assay with detergent); details: AmpC hydrolysis of nitrocefin, absorbance 480 nm, 0.01% Triton; series mostly up to 114 µM; also: nearly all actives have a fitted effect of over 25% in size
UniProt P00811, sequence (P00811 whole entry, looked up): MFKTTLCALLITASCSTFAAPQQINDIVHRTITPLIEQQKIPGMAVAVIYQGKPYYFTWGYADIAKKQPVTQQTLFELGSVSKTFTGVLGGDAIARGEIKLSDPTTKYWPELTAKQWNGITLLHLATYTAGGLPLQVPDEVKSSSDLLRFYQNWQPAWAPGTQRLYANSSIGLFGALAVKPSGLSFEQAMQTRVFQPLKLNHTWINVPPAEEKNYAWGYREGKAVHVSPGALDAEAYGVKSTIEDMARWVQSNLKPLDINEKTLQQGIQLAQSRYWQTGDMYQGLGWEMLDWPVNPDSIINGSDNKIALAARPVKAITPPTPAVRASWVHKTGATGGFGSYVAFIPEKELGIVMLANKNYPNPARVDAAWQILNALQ
Outline: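 AmpC (5.3 nM in the dispensed reagent) in 20 mM phosphate pH 7.0 with 0.01% (detergent screen) or 0.0001% Triton X-100 was preincubated with compounds for 15 min at room temperature. Nitrocefin was then added from an 800 uM solution, and hydrolysis was followed at 480 nm.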
Potency is read from the fitted curve at half-maximal effect; tags tell the direction and shape of the fitted curve.

Structure (SMILES)	Potency
CC1(C)Cc2ccccc2-c2c1c(=O)n(Cc1ccccc1)c1nnnn21	inconclusive [inhibitor, partial curve, poor fit]
CCc1ccccc1N(CC)C(=O)C(=O)Nc1ccc2nc3n(c(=O)c2c1)CCCCC3	inactive
O=C(c1ccc(Br)o1)N1CCC(c2nc3ccccc3[nH]2)CC1	inconclusive [inhibitor, partial curve, poor fit]
COc1nc(NCCC2=CCCCC2)nc(OC)n1	inconclusive [inhibitor, single point]
Cc1ccc(S(=O)(=O)N(C)c2ccc(OC(C)C(=O)N(C)c3ccccc3)cc2)cc1 (stereo not given)	inconclusive [inhibitor, full curve]
Cc1c(C(=O)Nc2ccc(S(=O)(=O)Nc3ncccn3)cc2)oc2ccccc12	inactive
COc1ccccc1/C=C/CN1CCCC(CO)(CCc2ccccc2)C1 (stereo not given)	inconclusive [inhibitor, partial curve, poor fit]
COC(=O)CC1C(=O)NCCN1C(=S)Nc1cccc(C(F)(F)F)c1 (stereo not given)	inconclusive [inhibitor, full curve, poor fit]
CCNC(=O)CC1C(=O)N(c2ccc(F)cc2)C(=O)N1Cc1ccc(OC)c(OC)c1 (stereo not given)	inconclusive [inhibitor, partial curve, poor fit]
COc1ccc(/C=C/c2nnc(NC(=O)COc3ccccc3)s2)cc1	inconclusive [inhibitor, full curve]
CN(C(=O)c1ccccc1)c1nc2ccccc2s1	inconclusive [inhibitor, full curve]
COc1ccc(-c2cc(C(=O)NC(C)C)no2)cc1	inconclusive [inhibitor, full curve, poor fit]
O=C1c2ccccc2-c2onc3ccc(Oc4ccccc4)c1c23	inactive
O=C(Cc1cccs1)N/N=C/C=C\c1ccccc1[N+](=O)[O-]	inactive
COc1cccc2cc(C(=O)NCCc3ccccc3)oc12	inactive
N#C/C(C(=O)NCc1ccccc1)=C1/SC(Cc2ccc(Cl)cc2)C(=O)N1c1ccccc1 (stereo not given)	inactive
CN1CCN(C(c2ccc(Br)cc2)c2cc(Cl)c3cccnc3c2O)CC1 (stereo not given)	inactive
CC(C)(CC(=O)NCc1ccc(Cl)cc1Cl)CC1=NS(=O)(=O)c2ccccc2N1	inactive
COc1ccc(N2C(=S)NC3N2C(=S)NC3(C)c2ccccc2)cc1 (stereo not given)	inactive
Cc1ccc(C(C(=O)NCC2CCCO2)N(Cc2ccccc2F)C(=O)Cn2nnc(-c3cccs3)n2)cc1 (stereo not given)	inconclusive [inhibitor, single point]
